Measurements taken from PMC7668044, “Insights into bacterial cell division from a structure of EnvC bound to the FtsX periplasmic domain” (Proceedings of the National Academy of Sciences of the …, 2020).
Positions count from the first letter of the chain named. In names and notes the source's numbering stands. No constants are given. Whether binding was seen depends on the method and setting. Some results given as binding are weak or reduced against the parent protein; the word gives no strength. Sequences can lack the tags named with a protein.

T1: EnvC LytM domain (residues 278 to 419), bacterial two-hybrid fusion (E. coli) (UniProt P37690)
T1 sequence: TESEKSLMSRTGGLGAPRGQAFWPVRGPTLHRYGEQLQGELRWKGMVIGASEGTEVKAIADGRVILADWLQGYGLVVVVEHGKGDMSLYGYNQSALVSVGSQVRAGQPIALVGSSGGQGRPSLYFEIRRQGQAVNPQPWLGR

T2: FtsX, wild type, bacterial two-hybrid fusion (Fig. 3B and 4E) (E. coli) (UniProt P0AC30)
T2 sequence: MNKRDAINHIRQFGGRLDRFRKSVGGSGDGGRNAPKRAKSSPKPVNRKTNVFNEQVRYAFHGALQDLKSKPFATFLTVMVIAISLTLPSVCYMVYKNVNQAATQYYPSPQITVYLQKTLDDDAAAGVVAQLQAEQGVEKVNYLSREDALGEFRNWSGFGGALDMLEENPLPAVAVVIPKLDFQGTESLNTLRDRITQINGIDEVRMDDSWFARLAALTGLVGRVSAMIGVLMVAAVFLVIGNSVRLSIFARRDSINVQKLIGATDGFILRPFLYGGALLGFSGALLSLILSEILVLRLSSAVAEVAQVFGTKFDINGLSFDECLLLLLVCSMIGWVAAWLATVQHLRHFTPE

T3: FtsA, bacterial two-hybrid fusion (UniProt P0ABH0)
T3 sequence: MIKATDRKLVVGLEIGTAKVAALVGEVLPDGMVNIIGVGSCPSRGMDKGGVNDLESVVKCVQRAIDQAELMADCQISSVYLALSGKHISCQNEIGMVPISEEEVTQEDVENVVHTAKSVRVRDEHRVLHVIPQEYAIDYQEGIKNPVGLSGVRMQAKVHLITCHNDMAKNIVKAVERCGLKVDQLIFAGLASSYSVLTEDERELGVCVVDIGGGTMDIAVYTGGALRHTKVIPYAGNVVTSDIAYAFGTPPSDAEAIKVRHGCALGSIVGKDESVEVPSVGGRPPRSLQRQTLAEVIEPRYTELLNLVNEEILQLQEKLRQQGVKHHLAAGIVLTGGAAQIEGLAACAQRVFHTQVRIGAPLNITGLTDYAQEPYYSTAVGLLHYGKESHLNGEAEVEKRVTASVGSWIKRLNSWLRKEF

T4: EnvC (35 to 419), bacterial two-hybrid fusion (E. coli) (UniProt P37690)
T4 sequence: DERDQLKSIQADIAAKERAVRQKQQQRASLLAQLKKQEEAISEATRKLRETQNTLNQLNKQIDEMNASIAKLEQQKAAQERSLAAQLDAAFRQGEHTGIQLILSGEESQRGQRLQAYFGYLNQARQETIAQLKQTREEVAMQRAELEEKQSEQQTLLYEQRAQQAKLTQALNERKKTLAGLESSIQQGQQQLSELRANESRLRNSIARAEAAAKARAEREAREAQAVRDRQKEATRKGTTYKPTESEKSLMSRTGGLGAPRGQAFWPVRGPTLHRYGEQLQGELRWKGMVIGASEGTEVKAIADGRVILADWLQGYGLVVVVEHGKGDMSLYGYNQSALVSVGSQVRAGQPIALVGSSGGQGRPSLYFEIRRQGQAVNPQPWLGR

T5: full-length NlpD (murein hydrolase activator), bacterial two-hybrid fusion (UniProt P0ADA3)
T5 sequence: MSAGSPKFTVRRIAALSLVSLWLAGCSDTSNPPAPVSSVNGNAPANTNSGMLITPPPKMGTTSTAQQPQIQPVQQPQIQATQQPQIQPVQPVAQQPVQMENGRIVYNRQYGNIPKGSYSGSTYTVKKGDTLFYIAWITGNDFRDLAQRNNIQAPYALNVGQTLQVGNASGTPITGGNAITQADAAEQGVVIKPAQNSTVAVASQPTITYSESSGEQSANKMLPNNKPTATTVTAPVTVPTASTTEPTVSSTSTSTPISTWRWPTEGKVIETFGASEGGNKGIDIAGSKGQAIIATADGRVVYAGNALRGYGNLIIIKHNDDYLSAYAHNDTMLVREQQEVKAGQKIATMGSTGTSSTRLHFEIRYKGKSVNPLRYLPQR

T6: FtsE, wild type, bacterial two-hybrid fusion (E. coli) (UniProt P0A9R7)
T6 sequence: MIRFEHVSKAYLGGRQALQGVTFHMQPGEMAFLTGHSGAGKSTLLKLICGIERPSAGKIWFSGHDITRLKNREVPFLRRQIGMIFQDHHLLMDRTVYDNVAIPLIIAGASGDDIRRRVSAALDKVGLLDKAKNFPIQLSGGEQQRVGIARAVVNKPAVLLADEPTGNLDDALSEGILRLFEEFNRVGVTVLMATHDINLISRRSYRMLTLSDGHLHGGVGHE

B1: AmiA, bacterial two-hybrid fusion (enzyme, UniProt P36548 1-289)
chain: MSTFKPLKTLTSRRQVLKAGLAALTLSGMSQAIAKDELLKTSNGHSKPKAKKSGGKRVVVLDPGHGGIDTGAIGRNGSKEKHVVLAIAKNVRSILRNHGIDARLTRSGDTFIPLYDRVEIAHKHGADLFMSIHADGFTNPKAAGASVFALSNRGASSAMAKYLSERENRADEVAGKKATDKDHLLQQVLFDLVQTDTIKNSLTLGSHILKKIKPVHKLHSRNTEQAAFVVLKSPSVPSVLVETSFITNPEEERLLGTAAFRQKIATAIAEGVISYFHWFDNQKAHSKKR
B2: FtsX F152E variant, bacterial two-hybrid fusion (Fig. 3B) (protein, UniProt P0AC30 1-352)
chain: T2 sequence with F152E
B3: FtsX Δ145-171 variant, bacterial two-hybrid fusion (Fig. 3B) (protein, UniProt P0AC30)
chain: MNKRDAINHIRQFGGRLDRFRKSVGGSGDGGRNAPKRAKSSPKPVNRKTNVFNEQVRYAFHGALQDLKSKPFATFLTVMVIAISLTLPSVCYMVYKNVNQAATQYYPSPQITVYLQKTLDDDAAAGVVAQLQAEQGVEKVNYLSGGAVAVVIPKLDFQGTESLNTLRDRITQINGIDEVRMDDSWFARLAALTGLVGRVSAMIGVLMVAAVFLVIGNSVRLSIFARRDSINVQKLIGATDGFILRPFLYGGALLGFSGALLSLILSEILVLRLSSAVAEVAQVFGTKFDINGLSFDECLLLLLVCSMIGWVAAWLATVQHLRHFTPE
B4: FtsE K41A, bacterial two-hybrid fusion (protein, UniProt P0A9R7 1-222)
chain: T6 sequence with K41A
B5: FtsE E163Q, bacterial two-hybrid fusion (protein, UniProt P0A9R7 1-222)
chain: T6 sequence with E163Q
B6: T18-FtsX periplasmic domain (110 to 209) Y114E (domain or fragment, UniProt P0AC30 110-209)
chain: QITVELQKTLDDDAAAGVVAQLQAEQGVEKVNYLSREDALGEFRNWSGFGGALDMLEENPLPAVAVVIPKLDFQGTESLNTLRDRITQINGIDEVRMDDS
B7: T18-FtsX periplasmic domain (110 to 209) K117A (domain or fragment, UniProt P0AC30 110-209)
chain: B6 chain with E5Y, K8A
B8: T18-FtsX periplasmic domain (110 to 209) A161D (domain or fragment, UniProt P0AC30 110-209)
chain: B6 chain with E5Y, A52D
B9: T18-FtsX periplasmic domain (110 to 209) M164A (domain or fragment, UniProt P0AC30 110-209)
chain: B6 chain with E5Y, M55A
B10: T18-FtsX periplasmic domain (110 to 209) L165A (domain or fragment, UniProt P0AC30 110-209)
chain: B6 chain with E5Y, L56A
B11: T18-FtsX periplasmic domain (110 to 209) D202A (domain or fragment, UniProt P0AC30 110-209)
chain: B6 chain with E5Y, D93A
B12: T18-FtsX periplasmic domain (residues 110 to 209), wild type (domain or fragment, UniProt P0AC30 110-209)
chain: B6 chain with E5Y
B13: T18-FtsX periplasmic domain (110 to 209) F152A (domain or fragment, UniProt P0AC30 110-209)
chain: B6 chain with E5Y, F43A
B14: T18-FtsX periplasmic domain (110 to 209) W155A (domain or fragment, UniProt P0AC30 110-209)
chain: B6 chain with E5Y, W46A
B15: T18-FtsX periplasmic domain (110 to 209) F158A (domain or fragment, UniProt P0AC30 110-209)
chain: B6 chain with E5Y, F49A
B16: T18-FtsX periplasmic domain (110 to 209) F158E (domain or fragment, UniProt P0AC30 110-209)
chain: B6 chain with E5Y, F49E
B17: T18-FtsX periplasmic domain (110 to 209) R205A (domain or fragment, UniProt P0AC30 110-209)
chain: B6 chain with E5Y, R96A
B18: T18-FtsX periplasmic domain (110 to 209) Y114A (domain or fragment, UniProt P0AC30 110-209)
chain: B6 chain with E5A
B19: T18-FtsX periplasmic domain (110 to 209) Δ145-171 (X-lobe replaced by a pair of glycines) (domain or fragment, UniProt P0AC30)
chain: QITVYLQKTLDDDAAAGVVAQLQAEQGVEKVNYLSGGAVAVVIPKLDFQGTESLNTLRDRITQINGIDEVRMDDS
B20: AmiC, bacterial two-hybrid fusion (enzyme, UniProt P63883 1-417)
chain: MSGSNTAISRRRLLQGAGAMWLLSVSQVSLAAVSQVVAVRVWPASSYTRVTVESNRQLKYKQFALSNPERVVVDIEDVNLNSVLKGMAAQIRADDPFIKSARVGQFDPQTVRMVFELKQNVKPQLFALAPVAGFKERLVMDLYPANAQDMQDPLLALLEDYNKGDLEKQVPPAQSGPQPGKAGRDRPIVIMLDPGHGGEDSGAVGKYKTREKDVVLQIARRLRSLIEKEGNMKVYMTRNEDIFIPLQVRVAKAQKQRADLFVSIHADAFTSRQPSGSSVFALSTKGATSTAAKYLAQTQNASDLIGGVSKSGDRYVDHTMFDMVQSLTIADSLKFGKAVLNKLGKINKLHKNQVEQAGFAVLKAPDIPSILVETAFISNVEEERKLKTATFQQEVAESILAGIKAYFADGATLARRG

These binders were tested against T1, EnvC LytM domain (residues 278 to 419), bacterial two-hybrid fusion (E. coli) (assay: two-hybrid; bacterial adenylate cyclase two hybrid (BACTH) system; E. coli BTH101 cells grown on IPTG/X-gal LB plates at room temperature; coloration followed over a time course).

Binder | binding
B1 | binds

What follows are binders tested against T2, FtsX, wild type, bacterial two-hybrid fusion (Fig. 3B and 4E) (E. coli) in the same assay as above.

Binder | binding
B2 | binds
B3 | binds
B4 | binds
B5 | binds

The binders below were run against T3, FtsA, bacterial two-hybrid fusion in the same assay as above.

Binder | binding
B2 | binds
B3 | binds

These binders were tested against T4, EnvC (35 to 419), bacterial two-hybrid fusion (E. coli) in the same assay as above.

Binder | binding
B6 | binds
B7 | binds
B8 | binds
B9 | binds
B10 | binds
B11 | binds
B1 | no binding
B12 | binds
B13 | binds
B14 | binds
B15 | binds
B16 | binds
B17 | binds
B18 | binds
B19 | no binding
B20 | no binding

The binders below were run against T5, full-length NlpD (murein hydrolase activator), bacterial two-hybrid fusion in the same assay as above.

Binder | binding
B1 | no binding
B20 | no binding

What follows are binders tested against T6, FtsE, wild type, bacterial two-hybrid fusion (E. coli) in the same assay as above.

Binder | binding
B2 | binds
B3 | binds
